According to PubChem BioAssay AID651567 (National Center for Advancing Translational Sciences (NCATS), 2012):
Out of some 1,200 compounds screened, about 10 (0.8%) were called active. About 4% were inconclusive and are not listed. Calls follow the shape of the dose curve; as a rule, active = well fitted inhibition curve with a large enough effect; inconclusive = small, poorly fitted or top-dose-only effect; inactive = no such curve, though single readings can be large or run the other way. This is one part of the list.

Experiment: qHTS Assay to Find Inhibitors of Chronic Active B-Cell Receptor Signaling: Hit Validation in OCI-Ly3 Assay
Conditions: OCI-Ly3 IkB-luciferase reporter, Chroma-Glo luminescence, 4 h; series mostly up to 46.1 µM; activity change, negative = inhibition: at the top concentration
In short: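 OCI-Ly3 cells in IMDM with 0.5% FBS get compound plus 80ng/ml doxycycline (dispensed solution), 4 hrs at 37C. Chroma-Glo read of green IkB-luc and red unfused luc; green/red ratio normalized to basal (0%) and 10 uM MG-132 (100%); concentration-response curves for each signal.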
% is scaled to controls: 0 for no effect and ±100 for the full control effect.

Activity change, negative = inhibition, inactive:
CCOC(=O)c1[nH]c(C)c(C(=O)c2cc(F)ccc2F)c1C -2.9%
O=C(/C=C\c1ccco1)Nc1cc([N+](=O)[O-])ccc1F -2%
COc1ccc([C@H]2CC(=O)C=C(c3ccc(OC)cc3OC)C2)cc1 -5.5%
CCOc1nc(OCC)nc(N2CCC(C)CC2)n1 -0.491%
Cc1c(CCC(=O)NCCCC(=O)O)c(=O)oc2cc3oc4c(c3cc12)CCCC4 0.133%
CC1CCC2C(=O)N(c3ccc(C(=O)Oc4cccc5cccnc45)cc3)C(=O)C2C1 (stereo not given) -1.75%
Cc1ccccc1OCCc1c(C)[nH]c(=S)[nH]c1=O -3.08%
COc1cc2cnc(-c3ccccc3)cc2cc1OC -8.58%
N#Cc1cccc2c1-c1ccccc1/C2=N/NC(N)=S 1.03%
CN1CCN(C(=S)NC(=O)c2ccc(-c3ccccc3)cc2)CC1 -29.4%
COc1ccc(C)cc1Nc1cc(C)nc2ncnn12 -1.77%
C=CCC(CC(O)COCCC)C(=O)NNC(=S)Nc1ccccc1 (stereo not given) -1.36%
CCC1=Nc2cc(C(=O)NCc3ccco3)ccc2Sc2ccc(Cl)cc21 -6.28%
CCOc1ccc2nc(NC(=O)c3ccc(OC)c(S(=O)(=O)N4CCOCC4)c3)sc2c1 -1.16%
Cn1c(=S)c2[nH]c(SCCN3CCCC3)nc2n(C)c1=O -0.216%
S=C(Nc1ccccc1)c1nc2ccccc2s1 -0.921%
CC(=O)Nc1nc2ccc(-c3nc4ccccc4o3)cc2s1 -1.68%
Cc1noc(C)c1CSc1ccc2ccccc2n1 -2.35%
COc1cc(C(CCN2CCOCC2)c2c(OC)cc(OC)c3c(-c4ccccc4)cc(=O)oc23)cc(OC)c1OC (stereo not given) -1.16%
COc1ccccc1-c1cc(C(=O)NCCc2ccccc2)no1 -4.78%
COc1cc(-c2noc(C)c2C#Cc2ccc(N)cc2)cc(OC)c1OC -8.49%
CC[C@]12c3[nH]c4cc(CCC(=O)N(C)C)ccc4c3CCN1C(=O)[C@@H](CC(=O)NCCc1ccccn1)C[C@@H]2C(=O)N1CCN(C(=O)C2CC2)CC1 0.416%
COc1ccc(CN2C[C@H]3CCCN3c3cc(Br)ccc3S2(=O)=O)cc1 -3.64%
Cc1ccc(OC/C(=N\O)C(C)(C)C)c([N+](=O)[O-])c1 -0.43%
CCc1nnc(NC(=S)Nc2ccccc2)s1 23.9%
COc1cc2c(cc1OC)C(c1cc3cc(OC)c(OC)cc3[nH]c1=O)N(C(=O)C1CC1)CC2 (stereo not given) -0.249%
Oc1c(CN2CCN(c3ccccc3)CC2)cc(Br)c2cccnc12 -2.02%
S=C(Nc1ccccc1Cl)N(Cc1ccccc1)Cc1ccccn1 -1.33%
Cc1ccccc1C1=NC(C(F)(F)F)(C(F)(F)F)c2c(n(C)c(=O)n(C)c2=O)N1 0.327%
CCc1ccc(N2CC(C(=O)OCC(=O)Nc3ccccc3C)CC2=O)cc1 (stereo not given) -0.558%
COc1cccc(C2NC(=S)NC(C)=C2C(=O)c2ccccc2)c1OC (stereo not given) -1.95%
COc1cc(NC(=S)NC(=O)c2ccccc2F)ccc1NC(=O)c1ccco1 0.561%
Cc1cc(C)c(C#N)c(SCc2c(F)cccc2[N+](=O)[O-])n1 -2.3%
Cc1nc(NC(=S)Nc2ccccc2)sc1C 31.6%
CC1=Nc2cc(C(=O)NCc3ccco3)ccc2Sc2ccc(C)cc21 -2.52%
C/C(CCC(C)C)=N\NC(=O)COc1ccccc1-c1ccccc1 -1.78%
N#Cc1ccccc1NC(=O)c1cccc(COc2ccc(Cl)cc2Cl)c1 -2.77%
C=CCOc1ccc(/C=C2\SC(N)=NC2=O)cc1OC -0.265%
CCOc1ccc2nc(NC(=O)c3ccccn3)sc2c1 14.3%
Cc1ccc(C(=O)O)cc1NC(=S)NC(=O)C(c1ccccc1)c1ccccc1 -0.348%
NNC(=O)c1[nH]c2ccc(Cl)cc2c1-c1ccccc1 -2.64%
Cc1cccc(OCCN2C(=O)C(=O)c3cc(C)ccc32)c1 -1.66%
O=C(COc1ccc(C(=O)c2ccccc2)cc1)NCc1ccc(F)cc1 -3.78%
Cc1ccccc1NC(=S)NCc1ccc2c(c1)cc(C)n2C -2.83%
CCOc1ccc(C(=O)NC(=S)Nc2cccc(S(=O)(=O)NC3=NCCC3)c2)cc1 -4.42%
CCOc1cc(/C=N\NC(N)=O)cc(Br)c1OC(C)C -0.42%
Cc1nn(CCC(=O)NNC(=S)NCC(C)C)c(C)c1Br -0.205%
COc1ccccc1CNS(=O)(=O)c1ccc(-c2cc(C)no2)cc1 -2.61%
CCCC1=Nc2cc(C(=O)NCCCOCC)ccc2Sc2ccccc21 -2.7%
CC1=Nc2cc(C(=O)NC3CCCC3)ccc2Sc2ccc(Cl)cc21 -3.13%
Cc1onc(-c2ccccc2)c1-c1nc2cc(Cl)ccc2c(=O)o1 -14.1%
CC[C@@H](C)[C@H](NC(=O)CCc1c(C)c2cc3c4c(oc3c(C)c2oc1=O)CCCC4)C(=O)O -0.106%
CCN(CC)c1ccc(NC(=O)c2cc(OC)cc(OC)c2)c(C)c1 -1.39%
COc1cc2c(c(OC)c1OC)-c1ccc(OC)c(=O)cc1C(NC(C)=O)CC2 (stereo not given) -3.28%
COC(=O)c1cnc(Oc2ccc(NC(=O)NC(=O)c3c(OC)cccc3OC)cc2)cc1C(F)(F)F -1.81%
Cc1cc(SCC#N)n2nc(C)c(-c3ccccc3)c2n1 -1.85%
COc1cc(OC)c2c(c1)OC(=O)CC2c1cc(OC)c(OC)c(OC)c1 (stereo not given) -1.85%
COc1ccc(C2CC(=O)Oc3cc(OC)c(OC)c(OC)c32)cc1 (stereo not given) -3.69%
Cc1ccccc1N=Nc1c(C)[nH]n(C(N)=S)c1=O 0.673%
CCCCC(=O)NC(=S)Nc1nnn(CCC)n1 0.346%
O=C(Oc1c(Cl)cc(Cl)c2cccnc12)c1cccs1 -6.54%
O=C(O)CCCCCCCCc1cn(Cc2ccc(C(=O)c3ccccc3)cc2)nn1 -2.2%
COC(=O)CCC(=O)NC(=S)Nc1sc(C)c(C)c1C(N)=O -1.47%
CC(C)Sc1ccccc1C(=O)Nc1ccc2c(c1)n(C)c(=O)n2C -6.52%
CCOC(=O)c1c(C)sc2c1N(C(C)=O)c1cc(Cl)ccc1S2 -1.47%
CC1=Nc2cc(C(=O)NCC3CCCO3)ccc2Sc2ccc(C)cc21 (stereo not given) -2.23%
Cc1nnc(C)n1/N=C/c1cc2ccccc2nc1Cl -2.19%
C#CCOc1ccc(C2C3=C(COC3=O)Nc3cc4c(cc32)OCO4)cc1OC (stereo not given) -3.1%
Cc1ccc(/C=N/NC(=O)COc2ccccc2-c2ccccc2)cc1 -0.917%
COc1cccc(N2CCN(C(=O)c3ccc(CS(=O)c4ccccc4C)o3)CC2)c1 (stereo not given) -3.35%
